Data: the RNAGym collection of RNA variant scans (doi:10.1073/pnas.2313332121)
Variants at the background level are over-represented here.

B1: TPR 5TU (parent)
chain: GGAUCUUCUCGAUCUAACAAAAAAGACAAAUCUGCCACAAAGCUUGAGAGCAUCUUCGGAUGCAGAGGCGGCAGCCUUCGGUGGCGCGAUAGCGCCAACGUUCUCAACUAUGACACGCAAAACGCGUGCUCCGUUGAAUGGAGUUUAUCAUG

Variants of: B1
Experiment: polymerase ribozyme fitness, log enrichment relative to wild type (log ratio); higher = more active; in vitro selection for triplet polymerase activity
In short: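 To select mutant libraries of each subunit of a heterodimeric triplet polymerase ribozyme, built by PCR and transcribed, each was annealed with a biotinylated primer, partner subunit and triplets, then incubated frozen at −7 °C. Extended constructs were gel-excised, captured on streptavidin beads and amplified by RT-PCR, in one round carried out in triplicate. Illumina sequencing of input and output libraries kept genotypes with ≥10 input reads and ≥1 read per output. Fitness is the base-2 logarithm of genotype enrichment relative to wild-type enrichment, from inverse-variance-weighted replicate averages.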

Polymerase ribozyme fitness (log ratio), -3.88:
GGAUCUUCUCGAUCUAACAAAAAAGACAAAUCUGCCACAAAACUUGAGAGCGUCUUCGGAGGCAGAGGCGGCAGCCUUCGGUGGCACGAUAGCGCCAACGUUCUCAACUAUGAAACGCAAAACGCGUGCUCCGUUGAAUGGAGUUUAUCAUG [G42A A52G U61G G86A C114A]

Polymerase ribozyme fitness (log ratio), ≤ -4.2:
GGAUCUUCUCGAUCUAACAAAAAAGACAAAUCUGCCACAAAACUUGAGAGCAUCUUCGGCUGCAGAGGCGGCAGCGUUCGGUGGCGCGAUAGCGUCAACGUUCUCAACUAUGACACGCAAAACGCGUGCUCCCUUGAAUGGAGUUUAUCAUG [G42A A60C C76G C95U G133C]
GGAUCUUCUCGAUCUAACAAAAAAGACAAAUCUGCCACAAAACUUGAGAGCAUCUUCGGAUGCAGAGGCGGCGGCCUUCGGUGGCGUGAUAGCGCCAACGUUCUCAACUAUGACACGCAAAACGCGUGCUCCGUUGAAUGGAGUUUAUCAUG [G42A A73G C87U]
GGAUCUUCUCGAUCUAACAAAAAAGACAAAUCUGCCACAAAACUUGAGAGCAUCUUCGGAUGCAGAGGCGGCGGCCUUCGGUGGCGCGAUAGCCCCAACGUUCUCAACUAUGACGCGCAAAACGCGUGCUCCGUUGAAUGGAGUUUAUCAUG [G42A A73G G94C A115G]
GGAUCUUCUCGAUCUAACAAAAAAGACAAAUCUGCCACAAAACUUGAGAGCAUCUUCGGAUGCAGAGGCGGCAGCCUUCGGUGGCGCGUUAGCGCCAAGGUUCUAAACUAUGACACGCAAAACGCGUGCUCCGUUGAAUGGAGUUUAUCAUG [G42A A89U C99G C105A]
GGAUCUUCUCGAUCUAACAAAAAAGACAAAUCUGCCACAAAACUUGAGAGCAUCUUCGGAUGCAGAGGCGGCAGCCUUCGGUGGCGCGAUAGCGCCAACGUUCUCAACUUUGACACGCAAAACGCGUGCUCCGUUGAAUGGAGUUUAUUAUG [G42A A110U C149U]
GGAUCUUCUCGAUCUAACAAAAAAGACAAAUCUGCCACAAAACUUGAGAGCAUCUUCGGAUGCAGAGGCGGCAGCCUUCGGUGGCGCGAUAGCGCCAACGUUCUCAACUAUGACACGCAAAACGCGUGCUCCGUUGAAUGGCGUUUAGCAUG [G42A A142C U148G]
GGAUCUUCUCGAUCUAACAAAAAAGACAAAUCUGCCACAAAAAUUGAGAGCAUUUUCGGAUGCAGAGGCGGCAGCCUUCGGUGACGCGAUAGCGCCAACGUUCUCAACUAUGACACGCAAAACGCGUGCUCCGUUGAAUGGAGUUUAUCGUG [G42A C43A C54U G84A A150G]
GGAUCUUCUCGAUCUAACAAAAAAGACAAAUCUGCCACAAAACUUGAGAGCAUAUUCGGAUGCAGAGGCGGCAGCCUUCAGUGGCGCGAUAGCGUCAACGUUCUAAACUAUGAUACGCAACACGCGUGCUCCCUUGAAUGGAGUUUAUCAUG [G42A C54A G80A C95U C105A C114U A121C G133C]
GGAUCUUCUCGAUCUAACAAAAAAGACAAAUCUGCCACAAAACUUGAGAGCAUCUUAGGAUGCAGAGGCGGCAGACUUCGGUGGCGCGAUAGAGCCAACGUUCUCAACUAUGACACGCAAAACGCGUGCUCCGUUGAAUGGAGUCUAUCAUG [G42A C57A C75A C93A U145C]
GGAUCUUCUCGAUCUAACAAAAAAGACAAAUCUGCCACAAAACUUGAGAGCAUCUUGGGAUGCAGAGGCGGCUGACUUCGGUGGCUCGCUAGCGCCAACGUUCUCAACUAUGACACGCAAAACGCGUGCUCCGUUGAAUGGAGUUUAUCAUG [G42A C57G A73U C75A G86U A89C]
GGAUCUUCUCGAUCUAACAAAAAAGACAAAUCUGCCACAAAACUUGAGAGCAUCUUCGGAUGGAGAGGCGGCAGCCUUCGGUGGCGCGAUAGCGCCAACGUUCUCAACUAUGACACGCAAAACGCGUGCUCCGUUGAAUGGAGUUUAUCAUG [G42A C63G]
GGAUCUUCUCGAUCUAACAAAAAAGACAAAUCUGCCACAAAACUUGAGAGCAUCUUCGGAUGCAGAGGCGGUAGCCUUUGGUGGCGCCAUAGCGCCAACGUUCUCAACUAUGACACGCAAAACGCGUGCUCCGUUGAAUGGAGUUUAUCAUG [G42A C72U C79U G88C]
GGAUCUUCUCGAUCUAACAAAAAAGACAAAUCUGCCACAAAACUUGAGAGCAUCUUCGGAUGCAGAGGCGGCAGGCUUCGGUGGCGAGAUAGCGCCAACGUUCUCAACUAUGACACGCAAAACGCGUGCUCCGUUGAAUGGAGUUUAUCAUG [G42A C75G C87A]
GGAUCUUCUCGAUCUAACAAAAAAGACAAAUCUGCCACAAAACUUGAGAGCAUCUUCGGAUGCAGAGGCGGCAGCAUUCGGUGGCGCGAUAGCCCCAAUGUUCUCAACUAUGACACGCAAAACGCGAGCUCCGUUGAAUGGAGUUUAACAUG [G42A C76A G94C C99U U127A U148A]
GGAUCUUCUCGAUCUAACAAAAAAGACAAAUCUGCCACAAAACUUGAGAGCAUCUUCGGAUGCAGAGGCGGCAGCCUUCGGUGGCGGGAUAGCGCCAACGUUCUCAACUAUGACACGCAAAACGCGUGCUCCGUUGAAUGGAGUUUAUCAUG [G42A C87G]
GGAUCUUCUCGAUCUAACAAAAAAGACAAAUCUGCCACAAAACUUGAGAGCAUCUUCGGAUGCAGAGGCGGCAGCCUUCGGUGGCGCGAUAGGGCCAACUUUCUCAACUAUGACACGCAAAACGCGUGCUCCGUUGAAUUGAGUUUAUCAUG [G42A C93G G100U G140U]
GGAUCUUCUCGAUCUAACAAAAAAGACAAAUCUGCCACAAAACUUCAGAGCAUCUUCGGAUGCAGAGGCGGCAGCCUUCGGUGUCGCGAUAGCGCCAACGUUAGCAACUAUGACACGCAAAAGGCGUCCUCCCUUGAAUGGACUUUAUCAUG [G42A G46C G84U C103A U104G C123G G128C G133C G143C]
GGAUCUUCUCGAUCUAACAAAAAAGACAAAUCUGCCACAAAACUUGAAAGCAUCUUCGGAUGCAGAGGCGGCGGCCUUCGGUGGCGCGAUAACGCCAACGUUCUCAACCAUGACACGCAAAACGCGUGCUCCGUUGAAUCGAGUUUAGGAUG [G42A G48A A73G G92A U109C G140C U148G C149G]
